Consider 86 compounds from PubChem BioAssay (NCI).

Values joined by “and” are separate entries in the source; they are usually repeats but may differ in a detail not shown here. Equal entries are not always repeated.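 Growth conditions: 96-well plates. Treatment: test compound, 48 hours, 5 concentrations. Analysis: linear interpolation between bracketing concentrations; unreached endpoints set to highest concentration. GI50 = concentration required for 50% inhibition of growth. TGI: total growth inhibition.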

The subject of this test is NCI-H322M lung. The test can be described thus: NCI-60 cell line screen, 48 h.
`CC(=O)O[C@@H](C1C[C@@H](C)[C@H]2[C@@](O)(O1)[C@H](O)[C@@]1(C)C3=CC[C@H]4C(C)(C)[C@@H](OC5OCC(O)C(O)C5O)CC[C@@]45C[C@@]35CC[C@]21C)C(C)(C)O` (some centres not stated) displayed a TGI greater than 100 µM. The same measure, in the same setting: then `O=C1CC(c2ccc(Cl)cc2)Oc2ccccc21` (configuration not stated), with greater than 100 µM; and `NCCSCCc1ccccc1`, with greater than 100 µM; and `CC1=CC(=O)N(c2c(C)cccc2Cl)C(C)N1` (configuration not stated), with greater than 100 µM.

`O=S(=O)(C/C(=N\O)c1ccccc1)c1ccccc1` registered a TGI greater than 100 µM. On to `C=CCCCc1ccc(C(O)CCCCCCCCCCCC)o1` (configuration not stated), for which the GI50 is 53.8 µM and the TGI was greater than 100 µM.

For `CCCNc1nc2ccccc2c2c1S(=O)(=O)c1ccc(Cl)cc1C2=O`, the GI50 is 1.21 µM and the TGI is 39.8 µM. The corresponding values for `CN(C)CCN1C(=O)c2cccc3cccc(c23)C1=O` are greater than 25 µM and greater than 25 µM. On the same counts, the results for `CCN(CC)CCOc1ccc(C(=O)/C=C\c2ccc(Cl)cc2Cl)cc1` are 13.7 µM and 27.8 µM.

As to `CN(/N=N/c1nc(OCc2ccccc2)c2[nH]cnc2n1)C(=O)Oc1ccc([N+](=O)[O-])cc1`, the GI50 is 9.36 µM and the TGI turned out to be 20.8 µM. As for `CN(C)CC1CN=C(NC(=O)Nc2ccccc2)O1` (configuration not stated), the TGI is greater than 100 µM. Same read-out and setting: to `Cc1c(C)c(S(=O)(=O)N(CCCCCON)OCCCN)c(C)c2c1OC(C)(C)CC2` belongs 26.3 µM; to `CCOC(=O)c1c(N2CCCC2)[nH]c(=O)c(C(c2cccs2)c2c(O)c(C(=O)OCC)c(N3CCCC3)[nH]c2=O)c1O`, greater than 100 µM. Still for that read-out and setting: then `O=C(O)/C=C/C(=O)N1C/C(=C\c2ccccc2)C(=O)/C(=C/c2ccccc2)C1`, with 27.8 µM. For `CC(C)C(NC(=O)C(Cc1ccccc1)NC(=O)[C@H]1CCC[C@H]1NC(=O)C(N)Cc1ccc(O)cc1)C(N)=O` (some centres not stated), the TGI was greater than 100 µM.

The compound `c1ccc(CC2(c3cc4ccccc4[nH]3)OCCO2)nc1` registered a TGI greater than 100 µM. The same measure, in the same setting: to `CN1C(Cl)=NS(=O)(=O)c2ccccc21` belongs greater than 100 µM. Turning to `Cc1cccc2c(N)c3ccccc3nc12`, the GI50 was 1.53 µM and the TGI was 6.86 µM. Regarding `COc1ccc2c(c1)CCC(OS(=O)(=O)CC13CCC(CC1=O)C3(C)C)C2=O` (configuration not stated), the TGI was determined as 66.4 µM. The same measure, in the same setting: to `C/C(=N\Nc1nc2ccccc2s1)c1cc(C)ncn1` belongs greater than 66 µM. As to `Cn1cnc([N+](=O)[O-])c1Sc1ncn[nH]1`, the GI50 is greater than 100 µM and the TGI was greater than 100 µM. Take `CCc1cc2c(oc3cc(C)ccc32)c(=O)n1C`: the TGI was greater than 10 µM. Still for that read-out and setting: to `C[C@H]1C(=O)CC[C@]2(C)CCC(C(C)(C)O)CC12O` (some centres not stated) belongs greater than 100 µM; to `CC1=NN(C(=O)CC(=O)Nc2cccc(Cl)c2)C(=O)C1N=Nc1ccc(C(=O)O)cc1` (configuration not stated), greater than 100 µM; to `C=C1[C@@H]([C@@]2(C)C=CC(=O)C(C)(C)[C@@H]2CC(=O)OC)CC[C@@]2(C)C(c3ccoc3)OC(=O)[C@H]3O[C@]132` (some centres not stated), greater than 100 µM.

The compound `O=C1NC(=O)C2C1N(Cc1ccccc1)C(=O)N2Cc1ccccc1` (configuration not stated) registered a TGI greater than 100 µM. Turning to `CC(C)CCN[C@@H]1CCc2cc(O)c(N3CC(=O)NS3(=O)=O)c(F)c2C1`, the GI50 is greater than 100 µM and the TGI is greater than 100 µM. In turn, `Cc1ccc(NC(=O)C(=O)Cc2cc[n+]([O-])cc2)cc1` displayed a TGI greater than 100 µM. Consider `Clc1nc(Cl)c2ncn(Cc3ccc(Cn4cnc5c(Cl)nc(Cl)nc54)cc3)c2n1`, for which the GI50 is 24.9 µM and the TGI is 83.6 µM. On the same counts, the results for `COc1ccc2nc(NC(=O)c3cccnc3Nc3cc(OC)c(OC)c(OC)c3)sc2c1` are 17.3 µM and 39.7 µM. `[Cl][Cd][Cl]`: the GI50 was > 71.5 µM and 49.3 µM; the TGI came to 115 µM.

As to `O=C(Nc1ccn(CCI)c(=O)n1)c1ccccc1`, the TGI was greater than 100 µM.

`N#CC(C#N)=Cn1c(=S)[nH]c2ccccc21` returned a TGI greater than 100 µM. Still for that read-out and setting: then `CC(=O)OCC(Br)C1(C)CCC(C(C)(C)Br)O1` (configuration not stated), with greater than 100 µM; and `COC(=O)c1ccc(NCc2cc(O)ccc2O)cc1`, with 54.3 µM. As for `CC(C)(C)C1CCC2c3c([nH]c4ccccc34)C3C(=O)N(c4ccc5c(c4)C(=O)c4ccccc4C5=O)C(=O)C3C2C1` (configuration not stated), the TGI is greater than 100 µM. Still for that read-out and setting: then `O=c1oc2ccc([N+](=O)[O-])cc2c(Nc2ccc3c(c2)S(=O)(=O)c2ccccc2O3)c1[N+](=O)[O-]`, with greater than 100 µM; and `O=C(CSC1=NNC2(C(=O)N1)c1ccccc1-c1ccccc12)NC(=S)Nc1ccccc1`, with greater than 10 µM; and `CC(C)C(NCc1c(O)ccc2c(-c3ccccc3)cc(=O)oc12)C(=O)O` (configuration not stated), with greater than 100 µM. The same measure, in the same setting: then `CNCCC=C1c2ccccc2CCc2ccccc21`, with 27.9 µM. In the case of `Cn1c(=O)c(Oc2ccc(F)cc2F)cc2cnc(NCCS(C)(=O)=O)nc21`, the GI50 was greater than 25 µM and the TGI is greater than 25 µM. As for `COc1ccc(NC2CC(C)N(C(=O)c3ccccc3)O2)cc1` (configuration not stated), the TGI is greater than 10 µM. With `Cc1ncc([N+](=O)[O-])n1CCNC(=O)Cn1c([N+](=O)[O-])cnc1C`, the TGI was greater than 100 µM. Same read-out and setting: to `CNC(=O)OCC1C2=C(C(=O)C(C)=C(N)C2=O)N2CC3C(N3C)C12OC` (configuration not stated) belongs 53.7 µM.

For `COc1ccc(Nc2c3ccccc3nc3[nH]c4ccccc4c23)cc1`, the GI50 was greater than 50 µM and the TGI is greater than 50 µM. In the case of `CCOC(=O)C1=C(Nc2ccc(Cl)c(Cl)c2)OC/C1=N\NS(=O)(=O)c1ccc(C)cc1`, the TGI was greater than 100 µM. `Cc1ccccc1N=NC(C(=O)c1ccccc1)C(=O)c1ccccc1` gave a TGI greater than 100 µM. The same measure, in the same setting: to `CCOC(=O)C(=O)C(CCC(=O)c1ccc2ccccc2c1O)C(=O)OCC` (configuration not stated) belongs greater than 100 µM. `COc1ccc(OC)c(Nc2nc(-c3c(C)nc4sccn34)cs2)c1`: the GI50 is greater than 100 µM and the TGI was greater than 100 µM.

In turn, `CCOP(=O)(OCC)/C(C#N)=C/c1ccnc2ccccc12` came in with a TGI greater than 100 µM. The same measure, in the same setting: to `CC(=O)ON(C(C)=O)c1ccc(-c2nc3ccccc3s2)cc1C` belongs greater than 100 µM; to `CCC(=O)N/N=C(\C=C\c1cccc(O)c1)c1sc(Nc2ccc(C)cc2[N+](=O)[O-])nc1C`, greater than 100 µM. Regarding `Cc1c(Sc2ccccc2)[n+](=O)c2cc(Cl)c(Cl)cc2n1[O-]`, the GI50 is greater than 100 µM and the TGI was greater than 100 µM.

Regarding `O=C(Nc1ccc(I)cc1F)c1cc(Cl)ccc1O`, the GI50 is 0.376 µM and the TGI was greater than 100 µM. `COc1cc(C(=O)Oc2c(C#N)sc3c2c(=O)n(-c2ccccc2)c(=S)n3-c2ccccc2)cc(OC)c1OC` showed a TGI of 54.6 µM. On to `Cc1nc(Nc2nc3ccccc3o2)nc(-c2cccc([N+](=O)[O-])c2)c1C(=O)Nc1ccc(F)c(Cl)c1`, for which the GI50 was 2.36 µM and the TGI is 8.46 µM.

Take `COc1ccc(Nc2cc(C)nc(N3CCN(c4ccnc5cc(Cl)ccc45)CC3)n2)cc1`: the GI50 is 6.35 µM and the TGI is greater than 100 µM. For the compound `N#CCCN(CCN(CCC#N)C(=O)Nc1ccccc1)C(=O)Nc1ccccc1`, the TGI was greater than 100 µM. The same measure, in the same setting: then `S=C1N=C(Cl)/C(=C\c2ccccc2)N1`, with greater than 100 µM; and `Cn1c2ccccc2c(=O)c2[nH]c3ccccc3c21`, with greater than 100 µM; and `CCC(=O)C(C(C)/C=C/CCSc1ccccc1)C(O)CCCCCC(=O)OC` (configuration not stated), with greater than 100 µM.

Regarding `CO[C@H]1CC(c2ccc[nH]2)=N[C@]12O[C@@H](C)C[C@@H]1CCCCCCCc3ccc([nH]3)[C@H]12`, the GI50 is 1.65 µM and the TGI is greater than 33.3 µM. Consider `CCOP(=O)(OCC)/C(C#N)=C/c1c[nH]c2ccccc12`, for which the TGI is greater than 100 µM.

`CN1CC(=O)N(C)c2nc[nH]c2C1=O` came in with a TGI greater than 100 µM.

Consider `COc1ccc(CCNC(=O)[C@H]2CCCC[C@@H]2CCO)cc1OC`, for which the TGI was greater than 100 µM. Still for that read-out and setting: to `O=C(CC1C(=O)Nc2ccccc2S1=O)Nc1ccc(Cl)cc1` (configuration not stated) belongs greater than 100 µM. Compound `CCN(CC)CCO/N=C1/C=C2CCC3C(CC[C@@]4(C)C3CC[C@]4(C)O)[C@@]2(C)CC1` (some centres not stated) showed a TGI of 36.8 µM.

Turning to `C=CCn1c(-c2ccc(-c3cs/c(=N\N=O)n3CC=C)cc2)cs/c1=N\N=O`, the TGI is greater than 100 µM. The same measure, in the same setting: then `CN(C)Cc1cc(C(C)(C)C)cc(C2CCCCC2)c1O`, with 28 µM. Still for that read-out and setting: to `O=C1Oc2cc3c(c4cccc1c24)O[C@H](c1ccccc1)[C@@H](c1ccccc1)[C@@H]3c1ccc(Cl)cc1` belongs greater than 100 µM; to `COC(=O)CCC(=O)NC1C2CC3CC(C2)CC1C3` (configuration not stated), greater than 100 µM; to `CC1=NN=C(N)NC1=CC(Sc1ccc(Cl)cc1)c1c(O)ccc2ccccc12` (configuration not stated), 65 µM.

The compound `CC1(C)[C@H]2Cc3cc(-c4cc5c(cn4)[C@@H]4C[C@H]([C@@H]5[C@@H]5c6cc(-c7cc8c(cn7)[C@@H]7C[C@H](C8)C7(C)C)ncc6[C@@H]6C[C@H]5C6(C)C)C4(C)C)ncc3[C@@H]1C2` displayed a TGI greater than 100 µM. The same measure, in the same setting: then `O=C1C=CC(CC(=O)c2ccc3ccccc3c2)O1` (configuration not stated), with 32.7 µM; and `Nc1ccc([C@H]2C(=O)N[C@H]3CCC[C@H]32)cc1`, with greater than 100 µM. The same measure, in the same setting: to `CCC(Oc1ccc(OC)c2ccccc(=O)c12)C(=O)O` (configuration not stated) belongs greater than 100 µM. Consider `C=C1c2c(Cl)ccc(O)c2C(O)=C2C(=O)[C@]3(O)C(O)=C(C(N)=O)C(=O)[C@@H](N(C)C)[C@@H]3[C@@H](O)[C@H]12`, for which the GI50 is 0.998 µM and the TGI amounted to 3.62 µM.

In turn, `Cc1ccc(S(=O)(=O)NNC2Oc3cc4c(cc3C(c3ccccc3O)C2C)OCO4)cc1` (configuration not stated) yielded a TGI of 30 µM.

Regarding `CN1C(=O)C2C=C3CCCCC3=CC2N(C)C1=O` (configuration not stated), the TGI was greater than 100 µM. Still for that read-out and setting: to `O=C(O)C1=C(C(=O)Nc2ccc(NC(=O)C3=C(C(=O)O)C4C=CC3C4)cc2)C2C=CC1C2` belongs greater than 100 µM. Turning to `c1ccc(CNc2nc(Nc3ccccc3)nc3ccccc23)cc1`, the GI50 was 3.32 µM and the TGI was found to be 12 µM. The compound `CCOC(=O)c1c(C)c(C)n2c1NC(=O)C2` gave a TGI greater than 100 µM. Same read-out and setting: to `Cc1ccc(S(=O)(=O)c2c(N)n(CCN(C)C)c3nc4ccccc4nc23)cc1` belongs greater than 100 µM; to `COc1ccc(N2C(=O)CC(c3c[nH]c4ncccc34)C2=O)cc1` (configuration not stated), greater than 100 µM.

For `CN(C)Cc1cc(N=Nc2ccc(Cl)cc2)ccc1OC(=O)c1ccccc1`, the TGI is 32.7 µM.

Take `COC1=C2CC(C)CC(OC)C(O)C(C)/C=C(\C)C(OC(N)=O)C(OC)/C=C\C=C(/C)C(=O)NC(=C(/C=N/N3CCCCC3)C1=O)C2=O` (configuration not stated): the TGI is 89.6 µM.
